# Measured values as given in the supplement of paper PMC10369915.
# The other results are listed elsewhere or left out. Rule as the data show it: active = 3.2 or more and inactive = the rest. The signal is at background level for most entries.
# B1: OR4C46_Y285 (peptide)
# chain: LNPLIYTLKNA
# B2: OPA1_Y268_D273A (peptide)
# chain: SLIDMYSEVLA
# B3: OR51B6_Y130_R125H (peptide)
# chain: HSPLRYTSILT
# B4: OR10C1_Y258_L255I (peptide)
# chain: TAIFIYIRPKA
# B5: OR10C1_Y251_L255I (peptide)
# chain: MVSLFYGTAIF
# B6: OR4C12_Y285 (peptide)
# chain: LNPVVYTLRNA
# B7: ORM1_Y175 (peptide)
# chain: KSDVVYTDWKK
# B8: OR8D4_Y132 (peptide)
# chain: CSPLLYRVIMS
# B9: OR2B11_Y127_I130S (peptide)
# chain: MALDRYVASCK
# B10: OPA1_Y268_L272P (peptide)
# chain: SLIDMYSEVPD
# B11: ORM1_Y175_V174M (peptide)
# chain: KSDVMYTDWKK
# B12: OPA1_Y582_Y582C (peptide)
# chain: EWKNNCPRLRE
# B13: OPA1_Y498_V502G (peptide)
# chain: MKALGYFAVGT
# B14: OR5R1_Y290 (peptide)
# chain: LNPLIYSLRNK
# B15: OR5R1_Y290_I289F (peptide)
# chain: LNPLFYSLRNK
# B16: OR1A1_Y288_P285S (peptide)
# chain: LNSFIYSLRNR
# B17: OPA1_Y582 (peptide)
# chain: EWKNNYPRLRE
# B18: OTC_Y317_R320L (peptide)
# chain: DDEVFYSPLSL
# B19: OTC_Y223_P225R (peptide)
# chain: ATPKGYERDAS
# B20: OR10C1_Y258 (peptide)
# chain: TALFIYIRPKA
# B21: OR51B6_Y130_T131I (peptide)
# chain: RSPLRYISILT
# B22: OTC_Y223_P225T (peptide)
# chain: ATPKGYETDAS
# B23: OR4C12_Y71 (peptide)
# chain: LIDTVYSSSSA
# B24: OR8H2_Y123 (peptide)
# chain: MAHDRYAAICS
# B25: OR8H2_Y123_H120Y (peptide)
# chain: MAYDRYAAICS
# B26: OPRK1_Y369_D374N (peptide)
# chain: VQDPAYLRDIN
# B27: OR6K6_Y160 (peptide)
# chain: CNPLRYPTIMI
# B28: OR8D4_Y123_C120Y_YF (peptide)
# chain: MAFDRYVAICS
# B29: OR2A5_Y123_YF (peptide)
# chain: MSFDRYMAICH
# B30: OPA1_Y268 (peptide)
# chain: SLIDMYSEVLD
# B31: OSMR_Y689 (peptide)
# chain: SECCKYKIDNP
# B32: OTC_Y223_P220A (peptide)
# chain: ATAKGYEPDAS
# B33: OR1A2_Y288_W293C (peptide)
# chain: LNPFIYSLRNC
# B34: OR52J3_Y125 (peptide)
# chain: MAFDRYVAVCA
# B35: OSCP1_Y237 (peptide)
# chain: KHGGNYVPAPK
# B36: OR2A5_Y123_I126V (peptide)
# chain: MSYDRYMAVCH
# B37: OTC_Y223_P225L (peptide)
# chain: ATPKGYELDAS
# Target: SHP2 C-SH2 domain E139D
# Test: enrichment score (SH2-bound / input frequency) (ratio); bacterial display of known human phosphotyrosine sites (pTyr-Var adds point mutants) read by sequencing; higher = stronger binding; tyrosines were phosphorylated by kinases first
# Conditions: peptide library: pTyr-Var
# 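Also: displayed peptides selected on beads carrying the immobilized SH2 domain, with library peptides lacking any tyrosine serving as negative controls.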
row,Binder,enrichment score
1,B1,inactive: 0.782
2,B2,inactive: 0.925
3,B3,inactive: 1.95
4,B4,inactive: 0.514
5,B5,inactive: 0.501
6,B6,inactive: 1.63
7,B7,inactive: 0.8
8,B8,inactive: 0.796
9,B9,inactive: 0.949
10,B10,inactive: 0.592
11,B11,inactive: 0.701
12,B12,inactive: 0.614
13,B13,inactive: 1.2
14,B14,inactive: 0.966
15,B15,inactive: 0.798
16,B16,inactive: 0.346
17,B17,inactive: 0.816
18,B18,inactive: 0.61
19,B19,inactive: 0.534

row,Binder,enrichment score
1,B20,inactive: 0.504
2,B21,inactive: 1.96
3,B22,inactive: 0.45
4,B23,inactive: 0.903
5,B24,inactive: 0.81
6,B25,inactive: 0.664
7,B26,inactive: 0.71
8,B27,inactive: 0.908
9,B28,inactive: 1.04
10,B29,inactive: 0.885
11,B30,inactive: 0.76
12,B31,inactive: 0.939
13,B32,inactive: 0.605
14,B33,inactive: 0.937
15,B34,inactive: 0.998
16,B35,inactive: 1.18
17,B36,inactive: 0.693
18,B37,inactive: 0.525

# Target: SHP2 C-SH2 domain wild-type
# Test: as above
# Conditions: peptide library: pTyr-Var
row,Binder,enrichment score
1,B1,inactive: 0.588
2,B2,inactive: 0.735
3,B3,inactive: 3.13
4,B4,inactive: 0.355
5,B5,inactive: 0.967
6,B6,inactive: 1.3
7,B7,inactive: 0.842
8,B8,inactive: 0.87
9,B9,inactive: 0.968
10,B10,inactive: 0.627
11,B11,inactive: 0.631
12,B12,inactive: 0.667
13,B13,inactive: 1.26
14,B14,inactive: 0.636
15,B15,inactive: 0.692
16,B16,inactive: 0.391
17,B17,inactive: 0.745
18,B18,inactive: 0.724
19,B19,inactive: 0.567

row,Binder,enrichment score
1,B20,inactive: 0.501
2,B21,inactive: 2.08
3,B22,inactive: 0.378
4,B23,inactive: 1.04
5,B24,inactive: 0.622
6,B25,inactive: 1.12
7,B26,inactive: 0.767
8,B27,inactive: 0.81
9,B28,inactive: 0.884
10,B29,inactive: 0.897
11,B30,inactive: 0.881
12,B31,inactive: 0.712
13,B32,inactive: 0.432
14,B33,inactive: 1.41
15,B34,inactive: 1.11
16,B35,inactive: 1.08
17,B36,inactive: 0.892
18,B37,inactive: 0.848

# Target: SHP2 N-SH2 domain L43F
# Test: as above
# Conditions: peptide library: pTyr-Var
row,Binder,enrichment score
1,B1,active: 3.66
2,B2,inactive: 0.856
3,B3,active: 4.83
4,B4,inactive: 0.446
5,B5,inactive: 0.843
6,B6,active: 6.04
7,B7,inactive: 0.698
8,B8,inactive: 0.64
9,B9,inactive: 1.02
10,B10,inactive: 0.724
11,B11,inactive: 0.569
12,B12,inactive: 0.639
13,B13,inactive: 0.992
14,B14,inactive: 2.73
15,B15,inactive: 1.04
16,B16,inactive: 0.577
17,B17,inactive: 0.84
18,B18,inactive: 0.878
19,B19,inactive: 0.464

row,Binder,enrichment score
1,B20,inactive: 0.575
2,B21,active: 4.96
3,B22,inactive: 0.485
4,B23,inactive: 0.838
5,B24,inactive: 0.646
6,B25,inactive: 0.746
7,B26,inactive: 0.735
8,B27,inactive: 0.697
9,B28,inactive: 0.701
10,B29,inactive: 0.777
11,B30,inactive: 0.826
12,B31,inactive: 0.878
13,B32,inactive: 0.545
14,B33,inactive: 1.32
15,B34,inactive: 1.01
16,B35,inactive: 1.26
17,B36,inactive: 0.651
18,B37,inactive: 0.825

# Target: SHP2 N-SH2 domain T42A
# Test: as above
# Conditions: peptide library: pTyr-Var
row,Binder,enrichment score
1,B1,inactive: 0.647
2,B2,inactive: 0.761
3,B3,active: 8.32
4,B4,inactive: 0.517
5,B5,inactive: 0.699
6,B6,inactive: 1.66
7,B7,inactive: 0.802
8,B8,inactive: 0.654
9,B9,inactive: 0.837
10,B10,inactive: 0.605
11,B11,inactive: 0.768
12,B12,inactive: 0.463
13,B13,inactive: 0.87
14,B14,inactive: 0.925
15,B15,inactive: 0.663
16,B16,inactive: 0.47
17,B17,inactive: 0.544
18,B18,inactive: 0.881
19,B19,inactive: 0.534

row,Binder,enrichment score
1,B20,inactive: 0.491
2,B21,active: 5.25
3,B22,inactive: 0.462
4,B23,inactive: 0.785
5,B24,inactive: 0.692
6,B25,inactive: 0.627
7,B26,inactive: 0.724
8,B27,inactive: 1.17
9,B28,inactive: 0.646
10,B29,inactive: 0.894
11,B30,inactive: 0.771
12,B31,inactive: 0.859
13,B32,inactive: 0.388
14,B33,inactive: 0.798
15,B34,inactive: 1.31
16,B35,inactive: 1.31
17,B36,inactive: 0.708
18,B37,inactive: 0.481

# Target: SHP2 N-SH2 domain T52S
# Test: as above
# Conditions: peptide library: pTyr-Var
row,Binder,enrichment score
1,B1,active: 3.71
2,B2,inactive: 1.01
3,B3,active: 6.38
4,B4,inactive: 0.492
5,B5,inactive: 0.722
6,B6,active: 6.75
7,B7,inactive: 0.811
8,B8,inactive: 0.767
9,B9,inactive: 0.933
10,B10,inactive: 0.732
11,B11,inactive: 0.54
12,B12,inactive: 0.631
13,B13,inactive: 0.802
14,B14,active: 3.32
15,B15,inactive: 0.663
16,B16,inactive: 0.58
17,B17,inactive: 0.846
18,B18,inactive: 0.735
19,B19,inactive: 0.499

row,Binder,enrichment score
1,B20,inactive: 0.491
2,B21,active: 5.8
3,B22,inactive: 0.536
4,B23,inactive: 0.982
5,B24,inactive: 0.555
6,B25,inactive: 0.745
7,B26,inactive: 0.659
8,B27,inactive: 0.877
9,B28,inactive: 0.97
10,B29,inactive: 0.75
11,B30,inactive: 0.706
12,B31,inactive: 1.16
13,B32,inactive: 0.837
14,B33,inactive: 1.67
15,B34,inactive: 1.15
16,B35,inactive: 1.24
17,B36,inactive: 0.835
18,B37,inactive: 0.717

# Target: SHP2 N-SH2 domain wild-type
# Test: as above
# Conditions: peptide library: pTyr-Var
row,Binder,enrichment score
1,B1,inactive: 1.29
2,B2,inactive: 0.947
3,B3,inactive: 1.6
4,B4,inactive: 0.356
5,B5,inactive: 1.67
6,B6,inactive: 2.12
7,B7,inactive: 0.96
8,B8,inactive: 0.934
9,B9,inactive: 1.17
10,B10,inactive: 0.639
11,B11,inactive: 0.623
12,B12,inactive: 0.715
13,B13,inactive: 1.04
14,B14,inactive: 0.725
15,B15,inactive: 0.685
16,B16,inactive: 0.596
17,B17,inactive: 0.809
18,B18,inactive: 0.718
19,B19,inactive: 0.488

row,Binder,enrichment score
1,B20,inactive: 0.362
2,B21,inactive: 2.66
3,B22,inactive: 0.705
4,B23,inactive: 0.813
5,B24,inactive: 0.436
6,B25,inactive: 0.999
7,B26,inactive: 0.901
8,B27,inactive: 0.849
9,B28,inactive: 0.767
10,B29,inactive: 1.04
11,B30,inactive: 0.818
12,B31,inactive: 1.11
13,B32,inactive: 0.543
14,B33,inactive: 1.17
15,B34,inactive: 1.17
16,B35,inactive: 1.07
17,B36,inactive: 0.834
18,B37,inactive: 0.831
